# Measured values reported in the supplement of paper PMC4166925.
# ± gives the standard deviation of the averaged measurements. In all, about 33,000 sequences were measured (“E-score (dimensionless, -0.5 to 0.5)”: median about -0.046, highest 2% from about 0.36 on). The list shows a part of the results.
# Tested on: T1, SpTbr T-box DNA-binding domain (GST fusion)
# T1 sequence: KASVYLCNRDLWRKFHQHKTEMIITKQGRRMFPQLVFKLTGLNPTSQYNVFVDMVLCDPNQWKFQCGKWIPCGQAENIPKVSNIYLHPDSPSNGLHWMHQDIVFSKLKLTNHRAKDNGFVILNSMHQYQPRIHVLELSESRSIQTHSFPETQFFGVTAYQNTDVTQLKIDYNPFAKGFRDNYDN
# Experiment: PBM E-score of 8-mer (E-score (dimensionless, -0.5 to 0.5)); Tbr is Tbrain of the sea star Patiria miniata (Pm) or the sea urchin Strongylocentrotus purpuratus (Sp); higher = stronger binding preference; most listed sequences are background and not binding sites
# Settings: the construct has about 5 more residues each side
# Summary of the method: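 Expression of GST-fused Tbr T-box DNA-binding domains, each holding the full T-box plus roughly five flanking residues, was carried out in BL21 E. coli at 20 °C, with purification by glutathione affinity chromatography. Universal Agilent arrays made double-stranded by primer extension were incubated with the protein at 200 nM in PBS (pH 7.5), then scanned and quantified. All ungapped 8-mers were scored from probe intensities, and each received an enrichment E-score from the Universal PBM Analysis Suite, averaged over duplicate arrays.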
row,Sequence,PBM E-score of 8-mer
1,CGATAGTA,-0.122 ± 0.091
2,CTGTTTGC,0.114 ± 0.1
3,CTACATGA,-0.0618 ± 0.042
4,CGATTGAA,0.107 ± 0.0081
5,AGGCCACG,-0.275 ± 0.066
6,TAGCGCGA,0.3785 ± 0.0014
7,AGAAGGAA,-0.175 ± 0.0074
8,ACGTGTTA,0.431 ± 0.015
9,AGCGTTAA,0.36 ± 0.025
10,AGATAGCA,0.0811 ± 0.0055
11,CTAGGCGA,-0.00077 ± 0.096
12,GACTTTAC,-0.0798 ± 0.014
13,ATTGTTCA,-0.0397 ± 0.014
14,ACGGGAAC,-0.0123 ± 0.072
15,GAAGTGTC,0.42864 ± 0.00011
16,ACTGAGTG,0.19 ± 0.047
17,AGGTTTCA,0.102 ± 0.031
18,ACTAAGCA,-0.195 ± 0.051
19,CCTGCTGC,-0.107 ± 0.0052
20,ATCAGAGA,-0.29 ± 0.02
21,CATTCTAA,-0.151 ± 0.026
22,AATCACTC,0.114 ± 0.018
23,ACGCACCA,0.0513 ± 0.0069
24,TACTATCA,-0.152 ± 0.032
25,ACCCGCGT,0.18 ± 0.057

row,Sequence,PBM E-score of 8-mer
1,GTTTCGCA,0.36 ± 0.02
2,CATATACC,-0.1917 ± 0.0017
3,GGGGCAGA,-0.245 ± 0.061
4,AAGCCTCT,-0.0688 ± 0.057
5,AAGGTGAG,0.445 ± 0.014
6,AAGCTGCA,0.117 ± 0.016
7,CAAATTGA,0.051 ± 0.068
8,TACGAACA,-0.0421 ± 0.0033
9,CAACCTCA,0.147 ± 0.058
10,CGGAAGAA,-0.0853 ± 0.066
11,CTACTGCC,-0.12 ± 0.042
12,GCCCTTGA,-0.213 ± 0.041
13,CCCGCAAC,-0.0391 ± 0.028
14,TAGATGAA,-0.0885 ± 0.015
15,ACGCTAGT,-0.0251 ± 0.059
16,CGGTGGCC,-0.216 ± 0.1
17,AAAAACTG,-0.101 ± 0.0074
18,CGGCAGGA,-0.125 ± 0.038
19,GAGGCTAA,-0.0881 ± 0.039
20,GAGGTGCC,0.379 ± 0.019
21,GGGAATGA,0.0437 ± 0.066
22,GCCACTTA,0.244 ± 0.011
23,ATCTATTG,-0.172 ± 0.11
24,TACGACTA,-0.13 ± 0.016
25,AGACGCGG,-0.22 ± 0.076

row,Sequence,PBM E-score of 8-mer
1,CCCCACTA,0.089 ± 0.026
2,CAGCATAC,0.0119 ± 0.012
3,CAGAGCTC,-0.265 ± 0.01
4,GCGCGACA,0.3438 ± 0.0009
5,GCACCAAC,0.17 ± 0.084
6,GAGTTACC,0.144 ± 0.011
7,ACGGTTCA,0.0606 ± 0.0075
8,ACGGGCTC,-0.0955 ± 0.038
9,AGGCACAA,-0.116 ± 0.028
10,AGAGATCT,-0.152 ± 0.025
11,GAACCGTC,0.0629 ± 0.027
12,ACAACGCG,0.174 ± 0.0055
13,GAGTGTAA,0.235 ± 0.04
14,AGGGAACC,-0.336 ± 0.03
15,CGATCCTA,-0.0748 ± 0.024
16,GAGCTCGC,0.032 ± 0.013
17,AAGGAAAA,-0.219 ± 0.11
18,CCAGTATC,-0.199 ± 0.063
19,AAGGCGGC,0.0356 ± 0.024
20,AGGGCAAT,-0.199 ± 0.012
21,AACTTAAT,-0.0641 ± 0.021
22,ACATAGTA,-0.0478 ± 0.1
23,AACATATG,-0.0686 ± 0.032
24,AGGGTAAA,-0.167 ± 0.029
25,CCAATCAA,-0.131 ± 0.035

row,Sequence,PBM E-score of 8-mer
1,CTATGCGA,0.124 ± 0.063
2,CCTTGAGA,-0.116 ± 0.016
3,ACCAGATC,0.106 ± 0.018
4,CATGACCA,-0.2 ± 0.056
5,ATAATCAT,-0.085 ± 0.035
6,CCCGTGCG,-0.0818 ± 0.018
7,GGCTAGCA,0.117 ± 0.015
8,ATCGAACG,-0.0106 ± 0.017
9,AAATATGA,-0.142 ± 0.076
10,ATGACGCC,0.321 ± 0.0033
11,ACCTACCT,0.0102 ± 0.051
12,ACATCTGC,-0.0696 ± 0.012
13,GGTGTCGA,0.453 ± 0.015
14,CTGAGGAC,0.0509 ± 0.03
15,AGAACAGG,-0.153 ± 0.039
16,CATAATCC,-0.186 ± 0.021
17,TTGTTAAA,0.184 ± 0.12
18,GCGCAGTA,-0.0941 ± 0.029
19,GATCGTCC,-0.199 ± 0.011
20,ACTACGTC,-0.269 ± 0.059
21,CTTGCCCC,0.0568 ± 0.059
22,ATATCTTC,-0.233 ± 0.09
23,GAATGGGA,-0.235 ± 0.021
24,CACGGTTC,0.133 ± 0.0055
25,CCGAATTA,-0.278 ± 0.029

row,Sequence,PBM E-score of 8-mer
1,AAGCACCC,-0.0675 ± 0.042
2,AATCTGAG,0.0009 ± 0.0013
3,CTTTAAAA,-0.135 ± 0.035
4,GTGCCCAA,-0.0375 ± 0.039
5,GAGTATAC,-0.177 ± 0.12
6,CAATACGA,-0.0472 ± 0.078
7,ACGGTCTG,-0.0305 ± 0.096
8,CAGCTACA,-0.037 ± 0.035
9,GCCTTGCC,-0.0967 ± 0.0056
10,GACTAAGC,-0.3743 ± 0.00026
11,CGTTAATA,0.106 ± 0.073
12,ATTAAGTA,-0.133 ± 0.052
13,GGGACAAC,-0.12 ± 0.0092
14,CGGTTAGC,0.142 ± 0.028
15,TATGACAA,0.0285 ± 0.073
16,CAATCAGG,0.0256 ± 0.12
17,GCCGGCCC,-0.26 ± 0.017
18,GACTGTCC,-0.0459 ± 0.057
19,CAAGCTTA,-0.145 ± 0.011
20,GGGAAAAC,0.0572 ± 0.038
21,ACCATTCG,0.221 ± 0.028
22,CGTAAGTC,-0.173 ± 0.094
23,ATTGCAAA,-0.0507 ± 0.054
24,ATTTGTTG,0.13 ± 0.018
25,ACTAGTCT,-0.117 ± 0.068

row,Sequence,PBM E-score of 8-mer
1,AATGGAGA,-0.25 ± 0.0069
2,AGGCAAAG,-0.141 ± 0.077
3,CGGTAGGA,-0.16 ± 0.034
4,GACCCTGC,-0.0273 ± 0.057
5,AGGGATAA,-0.128 ± 0.035
6,GCCGCCGA,0.0386 ± 0.066
7,ATTCACGA,0.288 ± 0.047
8,GCACCGGC,-0.128 ± 0.053
9,TACAAGTA,-0.149 ± 0.015
10,ATCCTACG,-0.263 ± 0.039
11,CGTGCCGA,0.0796 ± 0.033
12,AGGGCGTA,0.0425 ± 0.019
13,ATCTACAT,-0.0423 ± 0.11
14,GGGTACGA,-0.0119 ± 0.011
15,CCCACTTC,0.171 ± 0.018
16,ATATCCAG,-0.124 ± 0.032
17,ATAATCCA,-0.24 ± 0.06
18,ATAGGGAG,-0.00632 ± 0.036
19,CCGGTCGA,-0.12 ± 0.042
20,AAACATAA,-0.0335 ± 0.015
21,TAAACATA,-0.095 ± 0.0064
22,GATGTTCA,0.154 ± 0.024
23,GACGGTCC,-0.137 ± 0.068
24,ACAAGTTG,0.259 ± 0.015
25,AACAAACA,0.0644 ± 0.059

row,Sequence,PBM E-score of 8-mer
1,AAATTTAG,-0.19 ± 0.0076
2,GCCAACGA,0.122 ± 0.025
3,CCGGAGCG,-0.0436 ± 0.064
4,CAACGGGC,-0.0832 ± 0.017
5,CCTGCGTC,-0.1 ± 0.045
6,CTGTTATA,0.137 ± 0.071
7,ACGACGAG,0.0618 ± 0.011
8,AAGCTATT,-0.254 ± 0.023
9,GATTGTAA,-0.0389 ± 0.047
10,AAACGGAG,-0.078 ± 0.042
11,CAACTTAG,0.0415 ± 0.1
12,CTACGCCA,0.0492 ± 0.042
13,CCGAAGTC,-0.163 ± 0.017
14,GCACACCC,0.279 ± 0.022
15,ACTACGCT,-0.153 ± 0.062
16,TGCATCCA,0.000615 ± 0.1
17,TCAGGGCA,-0.168 ± 0.023
18,TCTGTTAA,0.131 ± 0.02
19,AAACCCCT,-0.117 ± 0.0024
20,ATTAGAAC,-0.159 ± 0.04
21,ACATGAGA,-0.00222 ± 0.05
22,AGCACGCA,0.122 ± 0.031
23,GGTAAGCA,-0.0719 ± 0.051
24,ACGGGTTG,-0.00777 ± 0.037
25,ATGGGCGC,0.0238 ± 0.11

row,Sequence,PBM E-score of 8-mer
1,AGCCTGCG,-0.00705 ± 0.00039
2,GTCCCCAC,0.0254 ± 0.019
3,GAGTGGTA,0.0432 ± 0.092
4,ATGTCAAT,0.118 ± 0.0044
5,AATCGAAC,-0.112 ± 0.033
6,ATTTGGGA,-0.224 ± 0.011
7,ACGTGCCT,-0.0516 ± 0.0046
8,ATCTTCGG,-0.103 ± 0.0064
9,GTTACAAC,-0.106 ± 0.12
10,AAACTAAT,-0.21 ± 0.057
11,ATCCCATC,-0.191 ± 0.038
12,GACTAGAA,-0.114 ± 0.02
13,CTTGGGTA,-0.202 ± 0.013
14,ATCGGCGG,-0.0323 ± 0.077
15,CGGACCCC,-0.324 ± 0.016
16,ACATCAGC,0.00954 ± 0.0068
17,TATAGGAA,-0.143 ± 0.01
18,GACTCACC,-0.0566 ± 0.12
19,GCCACTCA,0.19 ± 0.026
20,CTTCGAAC,0.0134 ± 0.012
21,GTATCAGA,-0.15 ± 0.048
22,GGACTGCA,-0.0104 ± 0.084
23,CAGTTGTC,0.219 ± 0.011
24,AGGATGGA,-0.243 ± 0.015
25,AGTACCCC,-0.1349 ± 0.00026

row,Sequence,PBM E-score of 8-mer
1,ATTGCAAT,-0.0496 ± 0.018
2,ATCGACAA,0.213 ± 0.0072
3,GGATAACA,0.212 ± 0.014
4,ACGTTCAA,-0.145 ± 0.032
5,AGCATGTC,-0.145 ± 0.002
6,ATATTAGG,-0.142 ± 0.14
7,ATCAAAGA,-0.185 ± 0.033
8,GATTCGGC,-0.0689 ± 0.016
9,CCCTAGAG,-0.059 ± 0.064
10,GCCTATCC,-0.15 ± 0.12
11,TAACGACA,0.183 ± 0.023
12,GTAGCTCA,-0.16 ± 0.041
13,AAATACAT,-0.0953 ± 0.0026
14,ACAACTGC,0.2037 ± 0.00041
15,AGGGACCT,-0.0856 ± 0.051
16,ATGATCTG,-0.0393 ± 0.0089
17,CAACATCC,0.0369 ± 0.026
18,CGACAAGC,0.289 ± 0.0056
19,CGCTGTGC,-0.0295 ± 0.044
